Results reported in the supplement of paper PMC4166925.
± gives the standard deviation of the averaged measurements. Over roughly 33,000 sequences, “E-score (dimensionless, -0.5 to 0.5)” has its median near -0.046; the highest 2% begin near 0.36. The list shows a part of the results.

system: T1, SpTbr T-box DNA-binding domain (GST fusion); assay: PBM E-score of 8-mer (E-score (dimensionless, -0.5 to 0.5)); Tbr is Tbrain of the sea star Patiria miniata (Pm) or the sea urchin Strongylocentrotus purpuratus (Sp); higher = stronger binding preference; most listed sequences are background and not binding sites; settings: the construct has about 5 more residues each side
T1 sequence: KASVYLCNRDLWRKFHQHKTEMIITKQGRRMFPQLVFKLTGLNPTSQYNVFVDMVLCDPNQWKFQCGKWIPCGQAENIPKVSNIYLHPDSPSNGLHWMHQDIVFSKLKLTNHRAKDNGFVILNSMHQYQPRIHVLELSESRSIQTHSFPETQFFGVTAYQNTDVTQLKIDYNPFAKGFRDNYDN
Method in brief: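 Expression of GST-fused Tbr T-box DNA-binding domains, each holding the full T-box plus roughly five flanking residues, was carried out in BL21 E. coli at 20 °C, with purification by glutathione affinity chromatography. Universal Agilent arrays made double-stranded by primer extension were incubated with the protein at 200 nM in PBS (pH 7.5), then scanned and quantified. All ungapped 8-mers were scored from probe intensities, and each received an enrichment E-score from the Universal PBM Analysis Suite, averaged over duplicate arrays.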

| Sequence | PBM E-score of 8-mer |
| --- | --- |
| AAGTCCAC | -0.116 ± 0.022 |
| GCGTATCA | -0.14 ± 0.015 |
| ACCAGTGA | -0.0495 ± 0.041 |
| GAATTGAA | -0.177 ± 0.099 |
| CTAGCCTC | -0.0149 ± 0.0017 |
| CGACTTGA | 0.0579 ± 0.084 |
| TGACAGCA | 0.2699 ± 0.0022 |
| CACACTAG | 0.247 ± 0.0041 |
| ACGACGTG | 0.2421 ± 0.00038 |
| GGCTACAA | -0.103 ± 0.017 |
| ACGAATGA | 0.00087 ± 0.061 |
| GTTCAAGA | -0.275 ± 0.12 |
| GCCTACCC | -0.0433 ± 0.057 |
| ATCGGAAA | 0.0519 ± 0.1 |
| GCCCTACC | -0.231 ± 0.018 |
| CCGCCGTC | -0.0628 ± 0.016 |
| ATGGAGCA | -0.216 ± 0.049 |
| AACTCCTC | -0.0179 ± 0.041 |
| GCGGCATA | -0.122 ± 0.076 |
| TACTTACA | 0.0313 ± 0.082 |
| TAATGAAA | -0.0329 ± 0.0047 |
| CAGGCGAG | 0.17 ± 0.0097 |
| AGGACATC | 0.0209 ± 0.091 |
| ATGGTGGG | -0.148 ± 0.029 |
| CGCGCAGA | 0.15 ± 0.0021 |

| Sequence | PBM E-score of 8-mer |
| --- | --- |
| ACGGGCAG | -0.111 ± 0.021 |
| CCACAGTA | -0.201 ± 0.011 |
| ATTTGTTA | 0.125 ± 0.085 |
| GAGATTAA | -0.0489 ± 0.075 |
| AGAGGCTC | -0.16 ± 0.016 |
| CATTAATG | -0.184 ± 0.053 |
| GGGACTAC | -0.192 ± 0.044 |
| AATATGCC | -0.199 ± 0.0042 |
| CTTGGTAC | 0.00058 ± 0.061 |
| CTTTTCAC | 0.327 ± 0.037 |
| CTGATTAA | -0.198 ± 0.041 |
| CGAGCGGA | -0.233 ± 0.013 |
| CAGTAATA | -0.0141 ± 0.0066 |
| CAATGCAC | 0.0557 ± 0.0021 |
| CATAGATG | 0.0278 ± 0.017 |
| GGAGAGCA | -0.0861 ± 0.087 |
| GAGGGCGC | 0.147 ± 0.036 |
| GACGCAGA | -0.038 ± 0.072 |
| GAGTTAAA | -0.0697 ± 0.042 |
| GGAAGGAC | -0.281 ± 0.062 |
| CCTGGGTC | -0.253 ± 0.044 |
| AGTTGATG | -0.00884 ± 0.0088 |
| AAGTACAG | 0.0334 ± 0.059 |
| ATCTGAAG | -0.218 ± 0.079 |
| AATCGTTC | -0.189 ± 0.049 |

| Sequence | PBM E-score of 8-mer |
| --- | --- |
| AAATTGCT | -0.0891 ± 0.024 |
| CGCAGCAA | 0.015 ± 0.039 |
| ACCCACAC | 0.355 ± 0.035 |
| GGGCGCTA | 0.314 ± 0.014 |
| ATCCCAAG | -0.268 ± 0.033 |
| CGTCCAAG | -0.0976 ± 0.0075 |
| ATCTTATC | -0.105 ± 0.035 |
| TGTCTAAA | -0.101 ± 0.12 |
| AACTCGGG | -0.241 ± 0.094 |
| AGATGTCG | 0.172 ± 0.02 |
| ACCCGCGA | 0.361 ± 0.011 |
| CATGGTCG | -0.0965 ± 0.042 |
| GGCAACCC | -0.0617 ± 0.1 |
| AGGCGGCA | 0.141 ± 0.0094 |
| CCTAAGAC | -0.232 ± 0.025 |
| CAACACTA | 0.264 ± 0.025 |
| AACACATT | 0.383 ± 0.024 |
| AGTTGTCG | 0.293 ± 0.033 |
| GAAATGGA | -0.101 ± 0.0095 |
| ACTATGCT | 0.0215 ± 0.058 |
| ACAAGGCG | 0.203 ± 0.048 |
| TCGCGCAA | 0.265 ± 0.0082 |
| TTAAATAA | -0.022 ± 0.084 |
| CGTGGAGC | -0.149 ± 0.098 |
| CAGGAATG | -0.099 ± 0.023 |

| Sequence | PBM E-score of 8-mer |
| --- | --- |
| ATCCGTAA | -0.0265 ± 0.049 |
| GAGCAGAA | -0.0216 ± 0.059 |
| CGCGCCTA | 0.356 ± 0.037 |
| GGATAGGA | -0.248 ± 0.01 |
| ACTTGGAT | -0.0509 ± 0.046 |
| TGAGTAAA | 0.164 ± 0.064 |
| AAAAAAAT | 0.0431 ± 0.054 |
| TGGTAACA | 0.2916 ± 0.0015 |
| GAAAACGA | -0.168 ± 0.017 |
| CTCAGAGC | 0.123 ± 0.018 |
| AAATTACC | 0.00666 ± 0.022 |
| AGAGTAGC | -0.0268 ± 0.064 |
| GAGAAAAC | 0.0173 ± 0.018 |
| AATATAGT | 0.016 ± 0.066 |
| ATATGAAA | -0.17 ± 0.12 |
| ATAATTGG | -0.0411 ± 0.041 |
| TATCAGAA | -0.0686 ± 0.062 |
| CTGCAGTC | -0.0913 ± 0.086 |
| TCCGACCA | -0.244 ± 0.015 |
| ATAACCGG | -0.036 ± 0.022 |
| AGACTATG | -0.23 ± 0.061 |
| ATGAGTTC | -0.106 ± 0.042 |
| GTATTATA | -0.284 ± 0.011 |
| CCTCTCAC | 0.361 ± 0.028 |
| CCCAAGTC | -0.163 ± 0.049 |

| Sequence | PBM E-score of 8-mer |
| --- | --- |
| CACAGAAA | -0.0162 ± 0.003 |
| GACTATGA | -0.0547 ± 0.034 |
| CGGCATAA | -0.302 ± 0.015 |
| CTCAGGGC | -0.123 ± 0.038 |
| CTGCCTCC | -0.155 ± 0.041 |
| TTAACCAA | -0.059 ± 0.0019 |
| GAAACGCA | -0.112 ± 0.0069 |
| GTAGGAAC | 0.073 ± 0.033 |
| GAATACCA | -0.0747 ± 0.052 |
| AAAGGGGC | -0.214 ± 0.017 |
| AAGCCGGG | -0.254 ± 0.053 |
| TCCCTACA | -0.17 ± 0.0073 |
| CGTTGTGA | 0.162 ± 0.028 |
| CTTCCGCA | 0.102 ± 0.023 |
| ACATATCA | 0.216 ± 0.043 |
| CTGGAAAG | -0.214 ± 0.068 |
| CGAGTGGC | 0.0734 ± 0.095 |
| CTATGGAA | -0.2951 ± 0.001 |
| ACCTTGGC | 0.249 ± 0.0077 |
| CAAACATG | -0.0413 ± 0.026 |
| CTTGGTTC | -0.108 ± 0.029 |
| ACGTCGTC | 0.0505 ± 0.041 |
| CACAATAC | 0.235 ± 0.0092 |
| AGCCAAAA | -0.265 ± 0.044 |
| AGTTCGTA | -0.053 ± 0.0053 |

| Sequence | PBM E-score of 8-mer |
| --- | --- |
| TGCGTCCA | -0.106 ± 0.061 |
| CCTGCACA | 0.08094 ± 0.00011 |
| ATGCATAA | -0.158 ± 0.063 |
| CCCGGTAC | -0.156 ± 0.041 |
| CTTGGTGC | 0.0988 ± 0.053 |
| ATGCATCC | -0.221 ± 0.065 |
| GAATCCTA | -0.182 ± 0.028 |
| TCTCTTCA | -0.106 ± 0.055 |
| AAAGCCTA | -0.353 ± 0.02 |
| CTCCCCAG | 0.00668 ± 0.043 |
| ATGTGTTA | 0.444 ± 0.015 |
| TAGGTGAA | 0.174 ± 0.059 |
| CTAGGGCA | -0.247 ± 0.024 |
| AGTCTCGC | 0.2447 ± 0.0024 |
| AACGGCAA | -0.0164 ± 0.062 |
| GCGACCAA | 0.135 ± 0.11 |
| CGCGTAAA | 0.132 ± 0.053 |
| CATTCATA | -0.0231 ± 0.071 |
| ACCCTAAG | -0.0957 ± 0.054 |
| GTAGTCCA | -0.241 ± 0.03 |
| CTCCTCAC | 0.262 ± 0.028 |
| GCGCGGCA | 0.156 ± 0.011 |
| TACCGTAA | -0.153 ± 0.057 |
| GCTATCGA | 0.123 ± 0.017 |
| AAAGGGTC | -0.256 ± 0.025 |

| Sequence | PBM E-score of 8-mer |
| --- | --- |
| AGGGCACG | -0.0654 ± 0.016 |
| AGTCCAAT | -0.0929 ± 0.015 |
| TCAACACA | 0.27 ± 0.006 |
| CTCAATAA | -0.137 ± 0.037 |
| CCTCGTGC | -0.0561 ± 0.024 |
| CCTCGGAA | -0.0996 ± 0.043 |
| CAAGCGAC | -0.00453 ± 0.034 |
| ACTCATAG | 0.0246 ± 0.073 |
| GCTTAGCA | 0.0326 ± 0.054 |
| AACGATAG | -0.202 ± 0.092 |
| ATACGTTA | 0.0202 ± 0.072 |
| CTAGCCCC | -0.172 ± 0.015 |
| ATCAGAGC | -0.23 ± 0.031 |
| GCACTAGA | -0.104 ± 0.021 |
| ACCCTCTA | -0.0709 ± 0.017 |
| ACATGGAT | -0.00132 ± 0.02 |
| AACTGCGT | -0.0404 ± 0.072 |
| CATCTTTA | -0.238 ± 0.014 |
| AAAATTAT | -0.0344 ± 0.022 |
| ATAGTCCC | -0.103 ± 0.015 |
| AACGACAC | 0.306 ± 0.01 |
| ATCCGGAA | -0.266 ± 0.045 |
